About 5,700 (2.6%) of roughly 220,000 compounds were called active. The shares of active, inactive and inconclusive entries below differ from those in the screen. The call rests on the fitted dose curve; in most records, active means well fitted inhibition curve with a large enough effect; inconclusive means small, poorly fitted or top-dose-only effect; inactive means no such curve, though single readings can be large or run the other way. Potencies beside an inconclusive call are fits to weak or partial responses and may not hold up.
The compounds below were run against Lysine-specific demethylase 5B (Homo sapiens) (UniProt Q9UGL1) (assay: Primary screen for KDM5B Histone Demethylases FDH-coupled qHTS). Conditions: FDH-coupled NADH fluorescence (FDH is formaldehyde dehydrogenase); activity change, negative = inhibition: at 57.7 µM (top of the series) unless noted.
Summary of the method: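 qHTS format, multiple compound concentrations. Buffer 50 mM HEPES pH 7.5/0.01% Tween-20; 200 nM KDM5BΔAP final; 10 min compound preincubation; substrate-mix levels 12.5 µM peptide, 25 µM α-KG, 0.25 mM NAD⁺; 30 min RT; ΔRFU.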
Further: nearly all actives have a fitted effect of over 70% in size.
Potency means the concentration at half of the fitted maximal effect; tags describe the fitted curve by direction and shape.
Wherever activity change, negative = inhibition is given: 0% is about no effect.

Chain of UniProt Q9UGL1 (Q9UGL1 whole entry, looked up): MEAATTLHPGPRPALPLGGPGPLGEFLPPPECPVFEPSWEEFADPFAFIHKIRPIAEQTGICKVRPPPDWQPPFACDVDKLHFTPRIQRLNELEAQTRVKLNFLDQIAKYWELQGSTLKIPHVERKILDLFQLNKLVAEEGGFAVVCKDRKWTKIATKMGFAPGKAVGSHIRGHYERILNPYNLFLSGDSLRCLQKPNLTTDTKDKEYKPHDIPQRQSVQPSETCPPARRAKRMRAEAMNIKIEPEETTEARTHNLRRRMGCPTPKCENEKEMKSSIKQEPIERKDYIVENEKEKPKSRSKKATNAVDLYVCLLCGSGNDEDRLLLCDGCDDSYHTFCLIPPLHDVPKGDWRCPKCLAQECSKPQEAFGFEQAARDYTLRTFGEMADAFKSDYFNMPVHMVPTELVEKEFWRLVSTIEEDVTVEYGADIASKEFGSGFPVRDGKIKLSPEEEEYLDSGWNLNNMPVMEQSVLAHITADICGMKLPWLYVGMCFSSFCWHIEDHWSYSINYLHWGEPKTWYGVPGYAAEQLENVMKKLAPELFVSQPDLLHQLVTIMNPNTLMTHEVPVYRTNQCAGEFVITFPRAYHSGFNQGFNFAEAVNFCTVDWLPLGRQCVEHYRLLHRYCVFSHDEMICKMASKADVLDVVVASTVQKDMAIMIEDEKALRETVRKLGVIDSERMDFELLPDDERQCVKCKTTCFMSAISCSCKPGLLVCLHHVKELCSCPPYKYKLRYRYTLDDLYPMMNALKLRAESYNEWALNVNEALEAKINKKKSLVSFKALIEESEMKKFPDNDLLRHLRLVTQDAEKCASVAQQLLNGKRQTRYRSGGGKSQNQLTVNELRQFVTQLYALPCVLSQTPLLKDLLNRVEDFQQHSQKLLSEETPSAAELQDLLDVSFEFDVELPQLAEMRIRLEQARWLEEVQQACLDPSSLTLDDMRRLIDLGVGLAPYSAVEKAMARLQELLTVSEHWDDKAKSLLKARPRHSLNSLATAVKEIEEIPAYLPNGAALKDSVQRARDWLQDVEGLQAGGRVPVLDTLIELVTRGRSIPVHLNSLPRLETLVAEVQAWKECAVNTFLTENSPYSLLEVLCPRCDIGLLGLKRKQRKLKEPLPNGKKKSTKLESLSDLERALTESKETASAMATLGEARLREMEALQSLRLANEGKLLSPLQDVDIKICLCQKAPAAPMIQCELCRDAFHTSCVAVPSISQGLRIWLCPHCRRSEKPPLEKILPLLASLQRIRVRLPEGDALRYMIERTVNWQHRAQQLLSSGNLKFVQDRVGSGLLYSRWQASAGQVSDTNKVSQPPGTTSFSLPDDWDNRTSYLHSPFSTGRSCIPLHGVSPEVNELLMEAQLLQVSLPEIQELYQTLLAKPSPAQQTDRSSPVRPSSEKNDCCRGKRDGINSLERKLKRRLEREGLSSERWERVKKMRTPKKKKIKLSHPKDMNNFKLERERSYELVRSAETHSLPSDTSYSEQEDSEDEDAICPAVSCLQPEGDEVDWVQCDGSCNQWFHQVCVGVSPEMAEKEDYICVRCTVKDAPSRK

Row | Structure (SMILES) | Potency | activity change, negative = inhibition
1 | COCCn1cc2c3c(cccc31)CN(C(=O)c1cc(F)ccc1Cl)CC2 | inconclusive: 28.2 µM [inhibitor, single point] | 
2 | COCCN1CC2(CCC1=O)CCN(C(=O)[C@@H]1C[C@@H](O)CN1)CC2 |  | inconclusive: -31% [inhibitor]
3 | COCCn1cnnc1CNc1cc(-c2ccncc2)nc2ccnn12 | inconclusive: 22.4 µM [inhibitor, partial curve, poor fit] | 
4 | COc1ccc(/C=C/c2ccc3cc(C)ccc3n2)cc1O | inconclusive: 35.5 µM [inhibitor, single point] | 
5 | Fc1ccc(-c2noc3ncnc(N4CCN(c5ccccc5)CC4)c23)cc1 | inconclusive: 39.8 µM [inhibitor, single point] | 
6 | CC(C)N1CCc2c(sc(NC(=O)c3ccc(C(=O)c4ccccc4)cc3)c2C(N)=O)C1 | inconclusive: 39.8 µM [inhibitor, single point] | 
7 | CC(C)(C)c1ccc(C(CNC(=O)c2cc(-c3cccs3)on2)N2CCOCC2)cc1 (configuration not stated) | inactive | 
8 | Cc1ccc(-c2cc(C(=O)OCC(=O)NC(=O)C3CCCCC3)c3ccccc3n2)o1 | inconclusive: 20 µM [inhibitor, partial curve, poor fit] | 
9 | CCN(C(=O)CSc1nnc(N2CCOCC2)n1-c1ccccc1)C1=CCCC1 | inactive | 
10 | CCOc1ccc(-c2nonc2NC(=O)c2oc3cc(C)ccc3c2C)cc1 | inconclusive: 31.6 µM [inhibitor, single point] | 
11 | COc1ccc(C(CC(=O)N2CCCCC2)c2c[nH]c3ccccc23)cc1OC (configuration not stated) | inactive | 
12 | CN(C)Cc1cn2c(=O)n(C)cc(-c3cccc(OC(F)(F)F)c3)c2n1 | inactive | 
13 | c1ccc2c(N3CCOCC3)nc(N3CCOCC3)nc2c1 | inconclusive: 28.2 µM [inhibitor, partial curve, poor fit] | 
14 | O=C(Nc1ccc(Cl)cc1)c1ccc(-n2cnc3ccccc3c2=O)cc1 | inactive | 
15 | O=C(COc1ccc(C(=O)c2ccccc2)cc1)NCc1ccccc1CN1CCCC1 | inactive | 
16 | CCN(CC)c1nn2c(=O)c(C(=O)NCCc3ccccc3)cnc2s1 | inconclusive: 10 µM [inhibitor, partial curve, poor fit] | 
17 | Cc1cc2c(cc1S(=O)(=O)NCc1ccccc1Cl)OCCN2C | inconclusive: 35.5 µM [inhibitor, single point] | 
18 | COc1ccc(CCNC(=O)c2cc(=O)c3cc(Cl)ccc3o2)cc1OC | inactive | 
19 | S=c1c2c(nc3nc[nH]n13)CCC2 | inconclusive: 22.4 µM [inhibitor, single point] | 
20 | CNC(=O)[C@@H](c1ccccc1)N1CCC[C@H]1C(=O)NCc1ccncc1 | inconclusive: 39.8 µM [inhibitor, partial curve, poor fit] | 
21 | Cc1ccc(C(=O)/C=C/c2cc(Br)ccc2F)o1 | inconclusive: 22.4 µM [inhibitor, partial curve, poor fit] | 

Row | Structure (SMILES) | Potency | activity change, negative = inhibition
22 | CCCN1CCN(CCCNc2nc(-c3ccc(OC)cc3)nc3ccccc23)CC1 | inconclusive: 12.6 µM [inhibitor, partial curve, poor fit] | 
23 | CCc1ccc(CNC(=O)Cc2ccc(NC(=O)N3CCSc4ncccc43)cc2)cc1 | inconclusive: 31.6 µM [inhibitor, partial curve, poor fit] | 
24 | CCOC(=O)CSc1nc2ccc(NC(=O)c3ccc(C)cc3)cc2s1 | inconclusive: 35.5 µM [inhibitor, single point] | 
25 | COc1ccc(Nc2cc(C)nc(N3CCN(C(=O)Nc4ccc(F)cc4)CC3)n2)cc1 | inactive | 
26 | N#Cc1nc(-c2cccs2)oc1N1CCN(C(=O)c2cccc(Cl)c2)CC1 | inconclusive: 22.4 µM [inhibitor, partial curve, poor fit] | 
27 | Cc1ccc(C)c(CS(=O)(=O)Cc2noc(C(C)(C)C)n2)c1 | inactive | 
28 | O=C(NC1CCCCCCC1)c1ccc(Cn2ccn3nc4c(c3c2=O)CCCC4)cc1 | inconclusive: 35.5 µM [inhibitor, single point] | 
29 | Cc1cc(NC(=O)Cn2ccn3nc(-c4ccc(F)cc4)c(CO)c3c2=O)n[nH]1 | inconclusive: 39.8 µM [inhibitor, single point] | 
30 | COc1ccc(OC)c(C2=Nn3c(nnc3-c3ccncc3)SC2)c1 | inconclusive: 10 µM [inhibitor, partial curve, poor fit] | 
31 | COc1ccc(CN2Cc3cc(NC(=O)c4ccc(Cl)cc4)ccc3OC(C)C2=O)c(OC)c1 (configuration not stated) | active: 25.1 µM | 
32 | CN(Cc1ccccc1)C(=O)CCc1ccnc(N2CCOCC2)c1 | active: 25.1 µM | 
33 | Cn1cc2c3c(cccc31)CN(C(=O)c1ccc(F)c(Cl)c1)CC2 | inconclusive: 28.2 µM [inhibitor, single point] | 
34 | O=C(CSc1ncnc2c1cnn2-c1ccccc1)NC(=O)NC1CCCC1 | inactive | 
35 | Cc1ccc(-c2ncc(C(=O)NCCN(C)C3CCCCC3)c(-c3ccncc3)n2)cc1 | inconclusive: 31.6 µM [inhibitor, single point] | 
36 | COc1ccc2cc(C(=O)NCC(=O)NC3CC3)c(C)nc2c1 | inconclusive: 28.2 µM [inhibitor, partial curve, poor fit] | 
37 | Cc1cc(C(=O)N2CCC3(CC2)c2[nH]c4ccccc4c2CCN3C)n(C)n1 | inactive | 
38 | CCOC(=O)c1cc(-c2ccccc2)n(-c2cccc(C(=O)Nc3ccc(F)c(F)c3)c2)c1C | inconclusive: 28.2 µM [inhibitor, partial curve, poor fit] | 
39 | Cc1nn(CCCC(=O)NCc2ccc(F)cc2)c(=O)c2c1sc1ccccc12 | inconclusive: 25.1 µM [inhibitor, partial curve, poor fit] | 
40 | CCN1CCSc2ccc(C(=O)NC(C)c3ccccc3)cc21 (configuration not stated) | inconclusive: 31.6 µM [inhibitor, partial curve, poor fit] | 
41 | Cc1cc(C)cc(C(=O)Nc2ccc(-c3nc4ncccc4o3)cc2)c1 | inconclusive: 7.94 µM [inhibitor, partial curve, poor fit] | 
42 | O=C(c1nc(-c2cccnc2)c2cnccn12)N1CCOCC1 | inactive | 
